# Measurements: ChEMBL document CHEMBL1201862, “PubChem BioAssay data set” (2004)
#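 Dose response: 5 concentrations. Exposure: 48 h. Format: 96-well plates. Endpoint: linear interpolation; highest concentration if not reached. GI50: concentration for 50% inhibition of growth.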 The source made the active and inactive calls. Rule as the data show it: active = GI50 up to about 1.1 µM and inactive = higher.
# Tested on: NCI-H322M
# Experiment: NCI-60 cell line screen, 48 h
row,Compound,GI50
1,CCCCCCCCC/C=C1\CC(CO)(COC(=O)C2CCCCC2)OC1=O (stereo unspecified),active: 0.236 µM
2,CC(=O)CC(=O)c1cc2c(=O)oc(C)cc2oc1=O,inactive: > 37.5 µM
3,COc1ccc(-c2nnc3c4ccccc4sn23)cc1,inactive: 8.57 µM
4,Cc1ccc(-c2cs/c(=N\c3ccccc3)n2NC(=O)c2ccncc2)cc1,inactive: 69.8 µM
5,O=S(=O)(O)c1ccc2cccc(/N=N\c3c(O)ccc4ccccc34)c2c1,inactive: > 100 µM
6,COC(=O)[C@@H]1C(=O)O[C@@H](c2ccc(OC)c(OC)c2OC)[C@@H]1C(=O)OC.COC(=O)[C@H]1C(=O)O[C@@H](c2ccc(OC)c(OC)c2OC)[C@@H]1C(=O)OC,inactive: > 100 µM
7,c1ccc2cc(NCNc3ccc4ccccc4c3)ccc2c1,inactive: 23.2 µM
8,O=C(Nc1ccccc1[N+](=O)[O-])/C(=N/Nc1cccc(Cl)c1)c1c(O)c2ccccc2oc1=O,inactive: 54.2 µM
9,Cn1nc2ccc([N+](=O)[O-])c(Cn3nnc4ccccc43)c2n1,inactive: > 100 µM
10,COc1cc2c(c(OC)c1OC)-c1ccc(SC)c(=O)cc1[C@@H](NCc1cccc(C#N)c1)CC2,active: 0.0371 µM
11,Cc1nc2ccccn2c1/N=N/c1ccc(C(=O)NN)cc1,inactive: 36 µM
12,COC(=O)C1=C(O)C(C(=O)OC)[C@]2(O)[C@H](C(=O)OC)[C@H]1C[C@@H](c1ccc(O)cc1)[C@H]2C(=O)OC (stereo partly specified),inactive: 34.8 µM
13,Cc1ccc(S(=O)(=O)N/N=C(\c2nc3ccc(Cl)cc3nc2O)C(O)c2cccc([N+](=O)[O-])c2)cc1 (stereo unspecified),inactive: > 100 µM
14,Cc1c(C(=O)/C=C/c2ccc3c(c2)OCO3)[n+]([O-])c2ccccc2[n+]1[O-],inactive: 37.3 µM
15,CCOC(=O)C1=CC(C)(C(=O)OCC)Nc2c(nc(N)[nH]c2=O)N1 (stereo unspecified),inactive: > 10 µM
16,CCOC(=O)[C@H]1O[C@@H]1C(=O)NC(CC(C)C)C(=O)NCCC(C)C (stereo partly specified),inactive: > 100 µM
17,O=C(NCCCl)Nc1ccccc1,inactive: > 100 µM
18,CN/C=C(/c1ccc(OC)cc1)C(O)c1ccc(OC)c(OC)c1 (stereo unspecified),inactive: > 100 µM
19,CC(=O)OC[C@@]1(C)[C@@H]2[C@@H]3[C@@]4(CO[C@]3(C)C(=O)[C@@]3(O)C[C@H](C)[C@H](OC(C)=O)[C@@H]3[C@H]4OC(C)=O)[C@H](OC(=O)c3ccccc3)C[C@@H]21,inactive: > 100 µM
20,CC(=O)Nc1ccccc1Sc1ccccc1,inactive: > 100 µM
21,N#CCCN(CCC#N)c1ccc(/C=C2\N=C(c3ccccc3)N(c3ccc(F)cc3)C2=O)cc1,inactive: > 100 µM
22,CCn1c(SCC(=O)NNC(=S)Nc2ccc(F)cc2)nc2ccccc2c1=O,inactive: > 100 µM
23,O=C1NC(S(=O)(=O)O)=NNC12c1ccccc1-c1ccccc12,inactive: > 10 µM

row,Compound,GI50
1,Nc1nc(Cl)cc(NCC2CC(O)(CO)C2)n1 (stereo unspecified),inactive: > 100 µM
2,CC1CCC(O)/C=C/C(=O)OC(C)C(O)/C=C/C(=O)O1 (stereo unspecified),inactive: > 100 µM
3,CC1=NN(c2cccc(S(=O)(=O)O)c2)C2(C1)C(Cl)C(=O)N2c1nc2ccccc2s1 (stereo unspecified),inactive: 13.4 µM
4,c1ccc(NC[Si]23OCCN(CCO2)CCO3)cc1,inactive: > 100 µM
5,CCC(=O)C1(N2CCOCC2)CCN(CCCC(=O)c2ccc(F)cc2)CC1,inactive: > 100 µM
6,Cc1ccc(Oc2ccc(C)cc2[N+](=O)[O-])cc1,inactive: > 100 µM
7,C=C1c2nc3ccccc3n2C=C(c2ccccc2)N1c1ccc(Cl)cc1,inactive: 53.7 µM
8,O=C1NC(N2CCCCC2)=N/C1=C\c1ccccc1,inactive: > 100 µM
9,COc1cc2c(cc1OC)C(C#N)N(C(=O)c1ccccc1)C=C2OC(=O)c1ccccc1 (stereo unspecified),inactive: 24.3 µM
10,CN1CCc2c(sc3nc(Nc4ccccc4)n(N)c(=O)c23)C1,inactive: > 100 µM
11,COc1ccc(C(=O)N(C(=O)N2CCN(c3ccccc3)CC2)S(=O)(=O)c2ccccc2)cc1,inactive: 34.9 µM
12,COC1CCCc2c(OC(C)=O)ccc(OC(C)=O)c21 (stereo unspecified),inactive: > 100 µM
13,COc1ccc(/C=C/c2cc(OC)c(OC)c(OC)c2)cc1O[Si](C)(C)C(C)(C)C,inactive: 9.35 µM
14,COc1cccc2c1C(=O)c1c(O)c3c(c(O)c1C2=O)C[C@@](O)(/C(C)=N/NC(=O)c1ccccc1)C[C@@H]3OC1CC(N)C(O)C(C)O1 (stereo partly specified),active: 0.998 µM
15,C1CCCCC2(CCCCCCCCC3(CCC1)OCCO3)OCCO2,inactive: > 100 µM
16,CC(=O)OCC1OC(NC(=O)N(CCCl)N=O)C(OC(C)=O)C(OC(C)=O)C1OC(C)=O (stereo unspecified),inactive: > 100 µM
17,CC1(C)CC[C@]2(C)CC[C@]3(C)C(=CC[C@@H]4[C@@]5(C)CCC(=O)C(C)(C)[C@@H]5[C@H](O)C[C@]43C)[C@@H]2C1,inactive: 16.8 µM
18,COc1c(OC)c(O)c2c(=O)c(OC)c(-c3ccc4c(c3)OCO4)oc2c1O,inactive: > 100 µM
19,CC1=NN(c2nc(N)nc(CSCc3nc(N)nc(N(C)C)n3)n2)C(C)(C)C1,inactive: > 100 µM
20,CCN(CC)c1ccc(Cl)c2c1C(O)(C(C)C)C2(C)C (stereo unspecified),inactive: 19.5 µM
21,COC(=O)Nc1nc2cc(NS(=O)(=O)c3ccc(Cl)cc3)ccc2[nH]1,inactive: 8 µM
22,CC1CC(c2ccccc2)Nc2nc3ccccc3n21 (stereo unspecified),inactive: > 100 µM
23,CCOC(=O)C(C(=O)OCC)P(=S)(S)c1ccccc1 (stereo unspecified),inactive: > 100 µM

row,Compound,GI50
1,CCOC(=O)CCN1C(=O)C(=O)N(c2ccc(OC)cc2)C1=S,inactive: > 100 µM
2,CN(CCNC(=O)c1nn(C)c2c1Cc1ccccc1-2)CCNC(=O)c1nn(C)c2c1Cc1ccccc1-2,inactive: 16.9 µM
3,Cc1cc(N(CCC#N)S(=O)(=O)c2ccccc2)ccc1/C=C1\N=C(c2ccc(Cl)cc2)OC1=O,inactive: > 100 µM
4,Cc1nn(C(=O)Cc2ccccc2)c2c1C(c1ccccc1)SC(=N)N2 (stereo unspecified),inactive: > 100 µM
5,N#Cc1c2nc3ccccc3nc2n2ccccc12,inactive: > 100 µM
6,CC(=O)Nc1ccc2c3c(cc(O)c2c1)N(C(=O)CCCCCC(=O)Nc1ccc2c4c(cc(O)c2c1)N(C(=O)OC(C)(C)C)CC4CCl)CC3CCl (stereo unspecified),inactive: 8.47 µM
7,N=C(N)SCc1ccc(Cl)c2ccccc12.O=[N+]([O-])c1c(O)c(Cl)cc(Cl)c1Cl,inactive: 12.9 µM
8,COc1cc2c(cc1OC)C13CCN4CC5=CCOC(CC(=O)O)C(C5CC41)C3N2 (stereo unspecified),inactive: > 100 µM
9,Cc1ccc2c(c1)NC(=O)CC(c1ccccc1)=N2,inactive: > 100 µM
10,O=C(O)/C=C\C(=O)c1ccc(Cl)cc1,inactive: > 100 µM
11,COc1ccc(C2Oc3c(cc(O)c(OC)c3C)[C@@H]2C)cc1OC (stereo partly specified),inactive: > 100 µM
12,O=C(/C=C\c1ccc(-c2ccccc2)cc1)c1cccs1,inactive: > 95.7 µM
13,O=C1/C(=C/c2ccccc2)CN(C(=O)Oc2ccccc2)C/C1=C\c1ccccc1,inactive: > 100 µM
14,CCOC(=O)C(SCCO)C(C(=O)OCC)n1cnc2c(=O)[nH]c(NC(C)=O)nc21 (stereo unspecified),inactive: > 100 µM
15,Cn1c2ccccc2c2c(-c3ccccc3)cc3c(c21)C(=O)C=CC3=O,inactive: > 10 µM
16,CC1(C)OC2OC(COC(=O)C(c3ccccc3)c3ccccc3)C3OC(C)(C)OC3C2O1 (stereo unspecified),inactive: 61.4 µM
17,O=C1O/C(=C(/Cl)c2cccc3ccccc23)c2ccccc21,inactive: > 100 µM
18,Cc1ccc2nc(-n3c(/C=C/c4ccccc4O)nc4ccccc4c3=O)sc2c1,inactive: > 100 µM
19,O=C(c1ccccc1)N1OCCC1Nc1ccc(Br)cc1 (stereo unspecified),inactive: > 10 µM
20,c1nc2nc[nH]c(SSc3[nH]cnc4ncnc3-4)c-2n1,inactive: 3.1 µM
21,CN1N=C(c2ccncc2)OC1c1cccc(F)c1 (stereo unspecified),inactive: > 100 µM
22,COc1ccc2c(CCNC(C)=O)c(C(C)=O)[nH]c2c1,inactive: 89.9 µM
23,Cc1nc2c(n1CCO)C(=O)c1ccccc1C2=O,inactive: 34.4 µM

row,Compound,GI50
1,COc1cccc(C2CC(=O)c3cc(N4CCCC4)ccc3N2)c1 (stereo unspecified),active: 0.0518 µM
2,CN(CCNC(=O)c1cn(C)c2c1ccc1ccccc12)CCNC(=O)c1cn(C)c2c1ccc1ccccc12,inactive: 3.77 µM
3,COc1cc2c(cc1OC)C1C(O)C(OC)C(Br)C3(Br)CCN(C2)C13 (stereo unspecified),inactive: 75.7 µM
4,COc1c(OC(C)C)c(OC(C)C)c2oc(=O)n3c2c1C(c1ccccc1-n1c(C)ccc1C)C=C3 (stereo unspecified),inactive: 23.9 µM
5,O=[N+]([O-])c1ccc2[nH]c3c(-c4ccccc4)nccc3c2c1,inactive: 16.7 µM
6,C=C(C)C(=O)OC1CC2(C)OC2CC(OC(C)=O)/C(C)=C/C2OC(=O)C(=C)C21 (stereo unspecified),inactive: 16.2 µM
7,COc1cc2cc[n+](C)c(Cc3ccccc3)c2cc1OC,inactive: > 100 µM
8,O=S(=O)(C/C(=N\O)c1ccccc1)c1ccccc1,inactive: > 100 µM
9,COc1cccc(C2C(C(=O)O)=C(CO)Oc3cc4c(cc32)OCO4)c1 (stereo unspecified),inactive: > 100 µM
10,Cc1cc(C)c(C(=O)OC(c2ccccc2)C(c2ccccc2)N2CCOCC2)c(C)c1 (stereo unspecified),inactive: > 100 µM
11,O=C1C2=C(c3ccccc31)C(c1ccccc1)NC(S)=N2 (stereo unspecified),inactive: 50.7 µM
12,Cn1c(SCc2c[nH]c3ccccc23)nnc1-c1ccc(Cl)cc1Cl,inactive: 23.7 µM
13,CC(C)(CN1CCCCC1)C(=O)CC(SCCS(=O)(=O)O)c1ccccc1 (stereo unspecified),inactive: 16 µM
14,COc1ccc(Cc2nc3cc(Cl)ccc3o2)cc1,inactive: 82.8 µM
15,CCC(C)NC(=S)N/N=C(\C)c1nc2cccnc2[nH]1 (stereo unspecified),inactive: 10.3 µM
16,O=C(O)c1ccc2c(c1)Cc1cc([N+](=O)[O-])ccc1-2,inactive: > 100 µM
17,Cc1nc2cc(C(F)(F)F)ccc2[nH]c1=O,inactive: > 100 µM
18,Clc1ccc(OCCSCCCCCCCCCCSCCOc2ccc(Cl)cc2)cc1,inactive: > 100 µM
19,CN(C(=O)c1cc2c(s1)sc1c(=O)n(C)c3ccccc3c12)c1ccccc1,inactive: 14.9 µM
20,COc1ccc(-c2c3c(n(C4OC(COC(C)=O)C(OC(C)=O)C(OC(C)=O)C4OC(C)=O)c(=S)c2C#N)CCCC3)cc1 (stereo unspecified),inactive: > 100 µM
21,Cc1ccc(-n2c(N)c(C#N)c3[nH]nc(N)c3c2=O)cc1,inactive: > 100 µM
22,O=C(O)CCC(=O)N1C/C(=C\c2ccccc2)C(=O)/C(=C/c2ccccc2)C1,inactive: 8.57 µM
